Source: patent publication US20230219969A1 (priority 2020, published 2023)
Like-named read-outs stand apart in the source and are kept apart here.

How the values were obtained:
5HT2A [1] = conditions: antagonist mode (Table 8), inhibition of 5HT response, 5-HT at 100 nM
5HT2A [2] = type: cell-based; conditions: agonist mode, relative to positive control 5-HT at 100 uM

SMILES: COc1ccc2c(ccn2CCN(C)C)n1 [Example 3, 2-(5-methoxy-1H-pyrrolo[3,2-b]pyridin-1-yl)-N,N-dimethylethan-1-amine]
- 5HT2A Agonist mean @ 100 nM (%) (5HT2A [1]): C (inhibits 5HT response by < 75%)
- 5HT2A Agonist mean @ 10 μM (%) (5HT2A [1]): C (inhibits 5HT response by < 75%)
- 5HT2A Agonist mean @ 100 nM (%) (5HT2A [2]): B (does not activate 5HT2A sensor assay in agonist mode)
- 5HT2A Agonist mean @ 10 μM (%) (5HT2A [2]): B (does not activate 5HT2A sensor assay in agonist mode)

SMILES: COc1cc2ccn(CCN(C)C)c2cn1 [Example 4, 2-(5-methoxy-1H-pyrrolo[2,3-c]pyridin-1-yl)-N,N-dimethylethan-1-amine]
- 5HT2A Agonist mean @ 100 nM (%) (5HT2A [1]): C (inhibits 5HT response by < 75%)
- 5HT2A Agonist mean @ 10 μM (%) (5HT2A [1]): C (inhibits 5HT response by < 75%)
- 5HT2A Agonist mean @ 100 μM (%) (5HT2A [1]): A (inhibits 5HT response by > 100%)
- 5HT2A Agonist mean @ 100 nM (%) (5HT2A [2]): B (does not activate 5HT2A sensor assay in agonist mode)
- 5HT2A Agonist mean @ 10 μM (%) (5HT2A [2]): B (does not activate 5HT2A sensor assay in agonist mode)
- 5HT2A Agonist mean @ 100 μM (%) (5HT2A [2]): A (activates 5HT2A sensor assay in agonist mode)

SMILES: COc1cnc2c(ccn2CCN(C)C)c1 [Example 5, 2-(5-methoxy-1H-pyrrolo[2,3-b]pyridin-1-yl)-N,N-dimethylethan-1-amine]
- 5HT2A Agonist mean @ 100 nM (%) (5HT2A [1]): C (inhibits 5HT response by < 75%)
- 5HT2A Agonist mean @ 10 μM (%) (5HT2A [1]): C (inhibits 5HT response by < 75%)
- 5HT2A Agonist mean @ 100 μM (%) (5HT2A [1]): A (inhibits 5HT response by > 100%)
- 5HT2A Agonist mean @ 100 nM (%) (5HT2A [2]): B (does not activate 5HT2A sensor assay in agonist mode)
- 5HT2A Agonist mean @ 10 μM (%) (5HT2A [2]): B (does not activate 5HT2A sensor assay in agonist mode)
- 5HT2A Agonist mean @ 100 μM (%) (5HT2A [2]): B (does not activate 5HT2A sensor assay in agonist mode)

SMILES: CN(C)CCn1ccc2cncnc21 [Example 6, N,N-dimethyl-2-(7H-pyrrolo[2,3-d]pyrimidin-7-yl)ethan-1-amine]
- 5HT2A Agonist mean @ 100 nM (%) (5HT2A [1]): C (inhibits 5HT response by < 75%)
- 5HT2A Agonist mean @ 10 μM (%) (5HT2A [1]): C (inhibits 5HT response by < 75%)
- 5HT2A Agonist mean @ 100 μM (%) (5HT2A [1]): A (inhibits 5HT response by > 100%)
- 5HT2A Agonist mean @ 100 nM (%) (5HT2A [2]): B (does not activate 5HT2A sensor assay in agonist mode)
- 5HT2A Agonist mean @ 10 μM (%) (5HT2A [2]): B (does not activate 5HT2A sensor assay in agonist mode)
- 5HT2A Agonist mean @ 100 μM (%) (5HT2A [2]): B (does not activate 5HT2A sensor assay in agonist mode)

SMILES: COc1ccc2c(c1)CCN2CCN(C)C [Example 8, 2-(5-methoxyindolin-1-yl)-N,N-dimethylethan-1-amine]
- 5HT2A Agonist mean @ 100 nM (%) (5HT2A [1]): C (inhibits 5HT response by < 75%)
- 5HT2A Agonist mean @ 10 μM (%) (5HT2A [1]): C (inhibits 5HT response by < 75%)
- 5HT2A Agonist mean @ 100 μM (%) (5HT2A [1]): C (inhibits 5HT response by < 75%)
- 5HT2A Agonist mean @ 100 nM (%) (5HT2A [2]): B (does not activate 5HT2A sensor assay in agonist mode)
- 5HT2A Agonist mean @ 10 μM (%) (5HT2A [2]): B (does not activate 5HT2A sensor assay in agonist mode)
- 5HT2A Agonist mean @ 100 μM (%) (5HT2A [2]): B (does not activate 5HT2A sensor assay in agonist mode)
